# Experimental data: publication PMC5700166
# Only a part is listed here, and it is no random draw. The list includes weakly bound sequences.
# Key:
# Test in all cases: protein-binding microarray (PBM)
# Settings in all cases: PBM: ~300 nM protein, 6 mM HEPES pH 7.8, 80 mM KCl, 0.5 mM EDTA, 0.5 mM EGTA, 6% glycerol, 35 ng/ul poly-dIdC, 1% milk, 1 h, room temperature; Ap Aiptasia and Nv Nematostella (sea anemones) / Co Capsaspora / Aq Amphimedon (sponge) / Dm Drosophila / Hu human; RHD is the Rel homology domain; high values mean tight binding; most listed sequences are background and not binding sites; double strand, one strand shown
# GST-Ap-NF-kB RHD = target: T1, GST-Ap-NF-kB RHD (UniProt A0A913YAJ5)
# T1 sequence: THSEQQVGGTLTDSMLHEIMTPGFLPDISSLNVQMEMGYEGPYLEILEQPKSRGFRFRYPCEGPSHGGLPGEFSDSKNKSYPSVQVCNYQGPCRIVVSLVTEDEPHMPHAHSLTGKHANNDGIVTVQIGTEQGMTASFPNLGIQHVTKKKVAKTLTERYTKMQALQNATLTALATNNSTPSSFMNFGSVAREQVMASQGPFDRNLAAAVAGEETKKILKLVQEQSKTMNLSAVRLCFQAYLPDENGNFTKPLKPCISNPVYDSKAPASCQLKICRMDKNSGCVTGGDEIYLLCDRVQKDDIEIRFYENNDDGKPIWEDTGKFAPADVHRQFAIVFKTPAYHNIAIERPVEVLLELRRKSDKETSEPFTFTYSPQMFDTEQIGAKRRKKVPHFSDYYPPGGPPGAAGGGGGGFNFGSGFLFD
# [1] = target: T2, GST-Nv-NF-kB (Cys allele) (UniProt E5G601)
# T2 sequence: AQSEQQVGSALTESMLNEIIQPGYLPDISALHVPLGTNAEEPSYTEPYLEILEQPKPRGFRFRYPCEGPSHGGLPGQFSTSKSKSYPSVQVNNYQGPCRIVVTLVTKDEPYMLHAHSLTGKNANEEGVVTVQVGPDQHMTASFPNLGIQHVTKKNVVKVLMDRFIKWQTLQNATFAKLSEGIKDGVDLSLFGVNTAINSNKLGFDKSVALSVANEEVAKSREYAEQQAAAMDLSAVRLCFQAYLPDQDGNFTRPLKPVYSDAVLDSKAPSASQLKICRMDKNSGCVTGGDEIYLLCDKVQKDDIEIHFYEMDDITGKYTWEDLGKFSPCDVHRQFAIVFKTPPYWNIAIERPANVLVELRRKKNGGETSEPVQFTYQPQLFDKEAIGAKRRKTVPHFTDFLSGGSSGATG
# GST-Co-NF-kB = target: T3, GST-Co-NF-kB (UniProt F1ARL5)
# T3 sequence: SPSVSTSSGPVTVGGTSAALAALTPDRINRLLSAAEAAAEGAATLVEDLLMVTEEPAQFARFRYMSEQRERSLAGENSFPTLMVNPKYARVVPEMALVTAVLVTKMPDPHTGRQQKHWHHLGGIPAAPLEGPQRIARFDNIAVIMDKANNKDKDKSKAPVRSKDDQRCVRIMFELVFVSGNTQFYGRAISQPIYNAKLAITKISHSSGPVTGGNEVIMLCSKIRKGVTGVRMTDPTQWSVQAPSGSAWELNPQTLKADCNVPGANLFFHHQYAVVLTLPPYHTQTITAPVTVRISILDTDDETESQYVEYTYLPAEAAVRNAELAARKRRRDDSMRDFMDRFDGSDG
# GST-Dm-Relish = target: T4, GST-Dm-Relish (UniProt Q94527)
# T4 sequence: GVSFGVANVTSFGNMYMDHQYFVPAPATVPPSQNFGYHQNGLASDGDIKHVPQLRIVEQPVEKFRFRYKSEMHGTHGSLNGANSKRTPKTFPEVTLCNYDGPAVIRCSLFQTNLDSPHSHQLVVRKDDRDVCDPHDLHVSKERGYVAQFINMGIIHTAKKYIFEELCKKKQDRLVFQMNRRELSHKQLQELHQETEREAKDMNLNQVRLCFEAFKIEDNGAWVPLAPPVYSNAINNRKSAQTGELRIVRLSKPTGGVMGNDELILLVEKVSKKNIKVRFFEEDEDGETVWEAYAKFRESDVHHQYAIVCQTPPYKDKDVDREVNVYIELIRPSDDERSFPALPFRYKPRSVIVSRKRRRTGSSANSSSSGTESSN
Sequence,binding signal (GST-Ap-NF-kB RHD),binding signal [1],binding signal (GST-Co-NF-kB),binding signal (GST-Dm-Relish)
CCGATTAACATCATAATGGGAAATGATGTTAATCGGGTCTTGATTCGCTTGACGCTGCTG,0.905 z-score,2.83 z-score,1.93 z-score,0.973 z-score
CCGATTAACATCAGGAAAAGTCCTGATGTTAATCGGGTCTTGATTCGCTTGACGCTGCTG,0.415 z-score,1.25 z-score,-0.767 z-score,2.98 z-score
CCGATTAACATCACTATTTCCCCTGATGTTAATCGGGTCTTGATTCGCTTGACGCTGCTG,6.35 z-score,7.42 z-score,8.77 z-score,3.62 z-score
CCGATTAACATCAAAATTTCCAGTGATGTTAATCGGGTCTTGATTCGCTTGACGCTGCTG,-0.498 z-score,0.454 z-score,0.466 z-score,0.998 z-score
CCGATTAACATCACAGGGTTTCCTGATGTTAATCGGGTCTTGATTCGCTTGACGCTGCTG,0.684 z-score,0.392 z-score,0.0345 z-score,2.82 z-score
CCGATTAACATCAGAATTGCCCATGATGTTAATCGGGTCTTGATTCGCTTGACGCTGCTG,0.771 z-score,0.491 z-score,0.88 z-score,0.737 z-score
CCGATTAACATCAGAGAAATTCCTGATGTTAATCGGGTCTTGATTCGCTTGACGCTGCTG,0.103 z-score,0.353 z-score,-0.475 z-score,0.927 z-score
CCGATTAACATCAGGGGGGACAATGATGTTAATCGGGTCTTGATTCGCTTGACGCTGCTG,4.56 z-score,4.19 z-score,6.09 z-score,2.95 z-score
CCGATTAACATCACTAAATTTCCTGATGTTAATCGGGTCTTGATTCGCTTGACGCTGCTG,0.407 z-score,0.136 z-score,0.407 z-score,0.0103 z-score
CCGATTAACATCACGGACTTTCCTGATGTTAATCGGGTCTTGATTCGCTTGACGCTGCTG,0.705 z-score,0.376 z-score,-0.24 z-score,2.95 z-score
CCGATTAACATCAGGAATTTTCATGATGTTAATCGGGTCTTGATTCGCTTGACGCTGCTG,-0.376 z-score,0.336 z-score,-0.0386 z-score,1.12 z-score
CCGATTAACATCAAATTTTCCGGTGATGTTAATCGGGTCTTGATTCGCTTGACGCTGCTG,0.592 z-score,0.841 z-score,0.761 z-score,1.54 z-score
CCGATTAACATCAGGAAATTCTATGATGTTAATCGGGTCTTGATTCGCTTGACGCTGCTG,0.15 z-score,-0.166 z-score,0.294 z-score,0.408 z-score
CCGATTAACATCAGGAAGTGCCCTGATGTTAATCGGGTCTTGATTCGCTTGACGCTGCTG,0.564 z-score,0.471 z-score,-0.43 z-score,-0.142 z-score
CCGATTAACATCAAGGAACTTCCTGATGTTAATCGGGTCTTGATTCGCTTGACGCTGCTG,-0.315 z-score,-0.463 z-score,0.0178 z-score,0.208 z-score
CCGATTAACATCACGGACTCTCCTGATGTTAATCGGGTCTTGATTCGCTTGACGCTGCTG,0.0521 z-score,-0.387 z-score,0.0113 z-score,0.0749 z-score
CCGATTAACATCACGGATTTTCCTGATGTTAATCGGGTCTTGATTCGCTTGACGCTGCTG,-0.018 z-score,-0.12 z-score,0.844 z-score,0.687 z-score
CCGATTAACATCAAGAATTTCCGTGATGTTAATCGGGTCTTGATTCGCTTGACGCTGCTG,0.672 z-score,0.364 z-score,0.201 z-score,0.43 z-score
CCGATTAACATCAAAAAATTTTCTGATGTTAATCGGGTCTTGATTCGCTTGACGCTGCTG,-0.0832 z-score,0.636 z-score,-0.54 z-score,2.72 z-score
CCGATTAACATCAAAAATTTTCCTGATGTTAATCGGGTCTTGATTCGCTTGACGCTGCTG,0.225 z-score,0.772 z-score,,2.62 z-score
CCGATTAACATCAGGAGTATCCCTGATGTTAATCGGGTCTTGATTCGCTTGACGCTGCTG,0.653 z-score,0.77 z-score,,0.343 z-score
CCGATTAACATCATTTATCCCGGTGATGTTAATCGGGTCTTGATTCGCTTGACGCTGCTG,1.16 z-score,0.544 z-score,,1.77 z-score
CCGATTAACATCAGGGTTAGTTGTGATGTTAATCGGGTCTTGATTCGCTTGACGCTGCTG,0.84 z-score,0.73 z-score,,0.532 z-score
CCGATTAACATCAAGGGGATTTCTGATGTTAATCGGGTCTTGATTCGCTTGACGCTGCTG,9.69 z-score,10.8 z-score,,9.09 z-score
CCGATTAACATCAGGGAAGTTTATGATGTTAATCGGGTCTTGATTCGCTTGACGCTGCTG,4.29 z-score,4.93 z-score,,3.35 z-score
CCGATTAACATCAGGATACCCCCTGATGTTAATCGGGTCTTGATTCGCTTGACGCTGCTG,7.7 z-score,4.68 z-score,,5.79 z-score
CCGATTAACATCAGGGGGAATCATGATGTTAATCGGGTCTTGATTCGCTTGACGCTGCTG,8.02 z-score,7.33 z-score,,6.2 z-score
CCGATTAACATCACGGGATGCCCTGATGTTAATCGGGTCTTGATTCGCTTGACGCTGCTG,1.03 z-score,0.734 z-score,-0.0517 z-score,5.65 z-score
CCGATTAACATCAGGGGGATGCATGATGTTAATCGGGTCTTGATTCGCTTGACGCTGCTG,4.72 z-score,4.49 z-score,,3.39 z-score
CCGATTAACATCACGGGGATTCCTGATGTTAATCGGGTCTTGATTCGCTTGACGCTGCTG,9.77 z-score,9.58 z-score,,10.6 z-score
